Laboratory results taken from the supplement of paper PMC9174493.
The other results are listed elsewhere or left out. Single values of this set are uncertain. Values with irradiation are relative to irradiated vehicle.

Experiments:
A549-Dual [1] = experiment: NF-kB reporter (SEAP) activity, viability-corrected, relative to vehicle (fold change vs vehicle); higher = more activation of STING-IRF / NF-kB immune response reporter; settings: 10 µM
A549-Dual [2] = experiment: ISRE reporter (Lucia luciferase) activity, viability-corrected, relative to vehicle (fold change vs vehicle); higher = more activation of STING-IRF / NF-kB immune response reporter; settings: 10 µM
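For NF-kB reporter (SEAP) activity, viability-corrected, relative to vehicle in this document: viability correction based on the alamar blue assay, with concentrations leaving 10% survival or less dropped.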

SMILES | NF-kB reporter (A549-Dual [1]; irradiation: 8 Gy/4 fr) | NF-kB reporter (A549-Dual [1]; irradiation: none) | ISRE reporter (A549-Dual [2]; irradiation: 8 Gy/4 fr) | ISRE reporter (A549-Dual [2]; irradiation: none)
C=CC(=O)N1CCCC(n2nc(-c3ccc(Oc4ccccc4)cc3)c3c(N)ncnc32)C1 (stereo not given) | 1.25 | 1.4 | 0.767 | 1.26
CCCC(C(=O)OCCN(CC)CC)(c1ccccc1)c1ccccc1.Cl [Proadifen HCl] | 0.726 | 1.19 | 0.705 | 0.746
CC1(C(=O)O)CCC2(C)CCC3(C)C(=CC(=O)C4C5(C)CCC(O)C(C)(C)C5CCC43C)C2C1 (stereo not given) [Glycyrrhetinic acid] | 0.637 | 0.572 | 0.653 | 0.682
CC1(C)CCC2(C(=O)O)C(O)CC3(C)C(=CCC4C5(C)CCC(O)C(C)(C=O)C5CCC43C)C2C1 (stereo not given) [Quillaic acid] | 0.99 | 0.882 | 0.938 | 0.871
O=C([O-])CC(O)CC(O)C=Cc1c(C2CC2)nc2ccccc2c1-c1ccc(F)cc1.O=C([O-])CC(O)CC(O)C=Cc1c(C2CC2)nc2ccccc2c1-c1ccc(F)cc1.[Ca+2] (stereo not given) [Pitavastatin Calcium] | 2.03 | 2.72 | 0.574 | 1.57
C[N+](C)(C)CCOC(=O)CCC(=O)OCC[N+](C)(C)C.O.O.[Cl-].[Cl-] [Succinylcholine Chloride Dihydrate] | 0.786 | 1.74 | 0.655 | 0.89
Cn1cncc1C(N)(c1ccc(Cl)cc1)c1ccc2c(c1)c(-c1cccc(Cl)c1)cc(=O)n2C (stereo not given) [Tipifarnib] | 0.97 | 1.37 | 0.653 | 1.82
CCCCCCCCCCCCCCCCCC(=O)OC [Methyl Stearate] | 1.19 | 0.672 | 1.35 | 0.717
CCCCCC(O)/C=C/C1C(O)CC(O)C1C/C=C\CCCC(=O)O.NC(CO)(CO)CO (stereo not given) [Dinoprost tromethamine] | 0.956 | 0.791 | 1 | 0.614
CC(C)NCC(O)COc1cccc2ccccc12.Cl (stereo not given) [Propranolol HCl] | 0.849 | 0.947 | 0.768 | 0.627
C[N+](C)(C)CCO.[Cl-] [Choline Chloride] | 0.921 | 0.95 | 0.853 | 0.625
CO/N=C(\C(=O)NC1C(=O)N2C(C(=O)O)=C(COC(C)=O)CSC12)c1csc(N)n1 (stereo not given) [Cefotaxime] | 0.934 | 1.09 | 0.75 | 0.722
CC(C)(Oc1ccc(Cl)cc1)C(=O)OCCOC(=O)c1cccnc1 [Etofibrate] | 0.928 | 0.928 | 0.834 | 0.697
CC(CS)C(=O)N1CCCC1C(=O)O (stereo not given) [Captopril] | 0.832 | 0.774 | 0.858 | 0.752
O=C([O-])c1ccccn1.O=C([O-])c1ccccn1.O=C([O-])c1ccccn1.[Cr+3] [Chromium picolinate] | 0.86 | 0.952 | 0.755 | 0.807
CSCC[C@H](N)C(=O)O [L-methionine] | 1.21 | 2.18 | 0.13 | 0.584
CN(C)CCCN1c2ccccc2Sc2ccc(C(F)(F)F)cc21.Cl [Triflupromazine hydrochloride] | 0.827 | 1.19 | 0.904 | 1.4
CC1(C(=O)[O-])CCC2(C)CCC3(C)C(=CC(=O)C4C5(C)CCC(OC(=O)CCC(=O)[O-])C(C)(C)C5CCC43C)C2C1.[Na+].[Na+] (stereo not given) [Carbenoxolone Sodium] | 1.44 | 0.854 | 1.33 | 0.836
COCCOC(=O)C1=C(C)NC(C)=C(C(=O)OC/C=C/c2ccccc2)C1c1cccc([N+](=O)[O-])c1 (stereo not given) [Cilnidipine] | 0.52 | 0.834 | 0.595 | 0.772
NC(=O)NCCC[C@H](N)C(=O)O [L-Citrulline] | 0.843 | 0.788 | 0.751 | 0.661
Clc1ccc(COC(Cn2ccnc2)c2ccc(Cl)cc2Cl)c(Cl)c1.O=[N+]([O-])O (stereo not given) [Miconazole Nitrate] | 0.472 | 0.692 | 0.334 | 0.556
CC(=O)OC1C[C@H](C)CCC1C(C)C (stereo partly drawn) [(1R)-(-)-Menthyl acetate] | 0.852 | 0.793 | 0.713 | 0.591
CC1(C)SC2C(NC(=O)C(N)c3ccccc3)C(=O)N2C1C(=O)O.O.O.O (stereo not given) [Ampicillin Trihydrate] | 0.941 | 0.977 | 1.01 | 0.915
COc1cc2c(cc1O)CCC1C2CCC2(C)C(O)CCC12 (stereo not given) [2-Methoxyestradiol (2-MeOE2)] | 0.706 | 1.28 | 0.287 | 1.44
CS(=O)(=O)c1cccc(CC(NC(=O)c2c(Cl)cc3c(c2Cl)CCN(C(=O)c2ccc4ccoc4c2)C3)C(=O)O)c1 (stereo not given) [Lifitegrast] | 1.4 | 1.22 | 1.16 | 0.899
NC(C=O)C(O)C(O)C(O)CO.O=S(=O)(O)O (stereo not given) [Glucosamine sulfate] | 1.07 | 0.997 | 0.912 | 0.788
Nc1nc2c(ncn2COC(CO)CO)c(=O)[nH]1 [Ganciclovir] | 0.609 | 0.944 | 0.607 | 0.72
Nc1nc2c(ncn2C2OC(CO)C(O)C2O)c(=O)[nH]1 (stereo not given) [Guanosine] | 1.05 | 0.761 | 1.13 | 0.884

SMILES | NF-kB reporter (A549-Dual [1]; irradiation: 8 Gy/4 fr) | NF-kB reporter (A549-Dual [1]; irradiation: none) | ISRE reporter (A549-Dual [2]; irradiation: 8 Gy/4 fr) | ISRE reporter (A549-Dual [2]; irradiation: none)
O=C1NC(=O)C(c2ccccc2)(c2ccccc2)N1 [Phenytoin] | 1.33 | 1.11 | 1.11 | 0.93
OCC(O)CN1CCN(c2ccccc2)CC1 (stereo not given) [Levodropropizine] | 0.794 | 1.23 | 0.918 | 0.683
O=C1Nc2ccc(Cl)cc2C(C#CC2CC2)(C(F)(F)F)O1 (stereo not given) [Efavirenz] | 0.62 | 1.18 | 0.601 | 0.92
CCN(CC)CCOc1ccc(/C(=C(\Cl)c2ccccc2)c2ccccc2)cc1.O=C(O)CC(O)(CC(=O)O)C(=O)O [Clomifene citrate] | 0.744 | 1.07 | 0.395 | 1.18
N[C@@H](CO)C(=O)O [L-serine] | 0.861 | 0.827 | 0.837 | 0.696
O=c1[nH]c(=O)n(C2CC(O)C(CO)O2)cc1C(F)(F)F (stereo not given) [Trifluridine] | 0.656 | 1.69 | 0.43 | 2.36
O=C([O-])C(O)Cc1ccc(O)c(O)c1.[Na+] (stereo not given) [Sodium Danshensu] | 1.41 | 1.13 | 1.69 | 1.08
CC(O)C(=O)[O-].[NH4+] (stereo not given) [Ammonium lactate] | 0.985 | 0.73 | 0.959 | 0.656
CCN(CCCCOC(=O)c1ccc(OC)c(OC)c1)C(C)Cc1ccc(OC)cc1.Cl (stereo not given) [Mebeverine Hydrochloride] | 0.867 | 0.835 | 0.938 | 0.885
CCC(=O)OC1C(OC2C(C)C(OC3CC(C)(OC)C(O)C(C)O3)C(C)C(=O)OC(CC)C(C)(O)C(O)C(C)C(=O)C(C)CC2(C)O)OC(C)CC1N(C)C.CCCCCCCCCCCCOS(=O)(=O)O (stereo not given) [Erythromycin estolate] | 1.51 | 0.728 | 1.86 | 0.855
O=C(O)C(O)C(O)C(OC1OC(CO)C(O)C(O)C1O)C(O)CO (stereo not given) [Lactobionic acid] | 1.08 | 1.17 | 1.12 | 0.995
CS(=O)(=O)c1ccc(C(O)C(CO)NC(=O)C(Cl)Cl)cc1 (stereo not given) [Thiamphenicol] | 0.538 | 1.17 | 0.331 | 0.453
CC1(C)NC(=O)N(c2ccc([N+](=O)[O-])c(C(F)(F)F)c2)C1=O [Nilutamide] | 0.62 | 1.13 | 0.412 | 0.636
CSCC1CN(/N=C/c2ccc([N+](=O)[O-])o2)C(=O)O1 (stereo not given) [Nifuratel] | 0.675 | 1.01 | 0.455 | 0.942
CCOC(=O)c1ncn2c1CN(C)C(=O)c1cc(F)ccc1-2 [Flumazenil] | 0.638 | 0.738 | 0.655 | 0.757
COc1ccc(C(=O)NCc2ccc(OCCN(C)C)cc2)cc1OC.Cl [Itopride hydrochloride] | 0.819 | 1.65 | 0.979 | 1.37
COc1ccc2c(c1)C(=O)N(CCc1ccc(S(=O)(=O)NC(=O)NC3CCCCC3)cc1)C(=O)C2(C)C [Gliquidone] | 0.598 | 0.658 | 0.626 | 0.762
CC(C)[N+](C)(CCOC(=O)C1c2ccccc2Oc2ccccc21)C(C)C.[Br-] [Propantheline bromide] | 0.717 | 0.998 | 0.725 | 0.603
Cc1ccsc1/C=C/C1=NCCCN1C.O=C(O)C(O)C(O)C(=O)O [Morantel tartrate] | 0.708 | 0.782 | 0.64 | 0.617
CN(CCN1CCC(OC(=O)Nc2ccccc2-c2ccccc2)CC1)C(=O)c1ccc(CN2CCC(C(N)=O)CC2)cc1 [Revefenacin] | 0.816 | 1.19 | 0.994 | 1.07
CC(C)c1c(C(=O)Nc2ccccc2)c(-c2ccccc2)c(-c2ccc(F)cc2)n1CCC(O)CC(O)CC(=O)O (stereo not given) [atorvastatin] | 0.726 | 0.999 | 0.72 | 0.948
O=C(O)c1ccc(-n2nc(-c3ccccc3O)nc2-c2ccccc2O)cc1 [Deferasirox] | 0.407 | 1 | 0.166 | 1.07
CCn1cc(C(=O)O)c(=O)c2cc(F)c(N3CCN(C)CC3)cc21.CS(=O)(=O)O.O.O [Pefloxacin Mesylate Dihydrate] | 0.847 | 0.943 | 0.791 | 0.776
CC(=O)Oc1cc2c(s1)CCN(C(C(=O)C1CC1)c1ccccc1F)C2.Cl (stereo not given) [Prasugrel Hydrochloride] | 0.899 | 0.936 | 0.746 | 0.46
NCCS(=O)(=O)O [Taurine] | 1.13 | 0.856 | 0.964 | 0.673
CCCOC(=O)c1ccc(O)cc1 [Propylparaben] | 0.701 | 0.555 | 0.645 | 0.486
Cl.NCCS [Cysteamine HCl] | 0.863 | 0.922 | 0.879 | 0.983
